Paper PMC4336329 (PLoS ONE, 2015)
Out of some 310,000 compounds screened, about 2,200 (0.71%) showed an effect of 50% or more. Effects have a minus sign here. The list shows a part of the results.

What follows are compounds tested against human ether-à-go-go-related gene (hERG) potassium channel (human, UniProt Q12809) (assay: primary screen, population patch clamp on CHO cells stably expressing hERG).
Chain of human ether-à-go-go-related gene (hERG) potassium channel (Q12809 whole entry, looked up): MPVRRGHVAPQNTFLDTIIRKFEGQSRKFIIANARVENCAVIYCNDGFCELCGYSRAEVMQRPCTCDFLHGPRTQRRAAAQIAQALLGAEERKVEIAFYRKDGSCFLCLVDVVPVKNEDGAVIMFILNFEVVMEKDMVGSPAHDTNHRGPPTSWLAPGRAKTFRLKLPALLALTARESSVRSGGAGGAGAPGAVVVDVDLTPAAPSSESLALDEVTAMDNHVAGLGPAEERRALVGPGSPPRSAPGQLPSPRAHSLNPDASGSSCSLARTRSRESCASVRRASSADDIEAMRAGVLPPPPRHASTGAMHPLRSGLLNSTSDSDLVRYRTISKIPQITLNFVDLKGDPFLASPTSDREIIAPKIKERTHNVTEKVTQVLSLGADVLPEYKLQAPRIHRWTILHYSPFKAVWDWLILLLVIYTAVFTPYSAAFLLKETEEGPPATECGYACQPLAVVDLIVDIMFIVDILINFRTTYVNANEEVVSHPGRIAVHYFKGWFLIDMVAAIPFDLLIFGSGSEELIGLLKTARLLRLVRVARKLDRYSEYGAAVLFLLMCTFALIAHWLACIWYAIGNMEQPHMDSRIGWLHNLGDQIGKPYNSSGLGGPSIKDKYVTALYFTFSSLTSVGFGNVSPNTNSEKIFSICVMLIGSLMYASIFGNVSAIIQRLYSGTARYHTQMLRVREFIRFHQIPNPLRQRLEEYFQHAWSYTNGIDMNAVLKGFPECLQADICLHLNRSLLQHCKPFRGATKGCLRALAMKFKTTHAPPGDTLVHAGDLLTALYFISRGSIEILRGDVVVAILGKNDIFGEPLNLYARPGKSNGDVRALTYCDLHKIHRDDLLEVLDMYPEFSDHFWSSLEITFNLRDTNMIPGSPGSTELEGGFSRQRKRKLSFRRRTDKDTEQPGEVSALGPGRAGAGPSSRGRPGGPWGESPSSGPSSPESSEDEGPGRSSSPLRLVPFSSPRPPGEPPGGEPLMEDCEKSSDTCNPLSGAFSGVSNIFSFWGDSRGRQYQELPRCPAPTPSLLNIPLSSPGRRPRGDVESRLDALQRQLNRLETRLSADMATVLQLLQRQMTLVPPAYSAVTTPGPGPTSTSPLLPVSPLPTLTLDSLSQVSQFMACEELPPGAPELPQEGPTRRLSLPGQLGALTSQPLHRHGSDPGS

Row | SMILES | hERG current change (%, negative = inhibition) at 1uM [%]
1 | Cc1c2cnn(CC(=O)NCc3ccccn3)c(=O)c2c(C)n1Cc1ccc(Cl)cc1 | 12
2 | COc1cccc(N2CC(C)Cn3c2nc2c3c(=O)n(CCN3CCOCC3)c(=O)n2C)c1 (centres unmarked) | 16.7
3 | Cc1ccccc1NC(=O)CN(C)S(=O)(=O)c1ccc2c(c1)n(C)c(=O)c(=O)n2C | 12.4
4 | O=C(COc1ccccc1Cl)NCCNC(=O)c1ccncc1 | 22.8
5 | CN(C)CCCCOc1cccc(Br)c1.O=C(O)C(=O)O | 6.64
6 | CN1CC(C(=O)c2ccc(Cl)cc2)C(c2ccc(Cl)cc2Cl)C1 (centres unmarked) | 7.54
7 | O=C(NC(=S)NCC1CCCO1)c1ccc(Cl)cc1Cl (centres unmarked) | 1.34
8 | Fc1ccc(N2CCN(Cc3cn[nH]c3-c3ccccc3)CC2)cc1 | -27
9 | O=C1NC(=O)C2(CCCCCCCCCCC2)N1 | 9.52
10 | Nc1cc([N+](=O)[O-])cc2oc(-c3ccccc3)cc12 | 13
11 | Fc1cccc(Nc2cc(-n3cccn3)ncn2)c1 | 7.87
12 | CC(C)(C)NC(=O)NC(=O)CSc1nnc(COc2ccccc2Cl)o1 | 7.67
13 | O=C(Cc1ccccc1[N+](=O)[O-])NCCCN1CCOCC1 | 4.71
14 | Cc1ccc(S(=O)(=O)NC(=O)Nc2nccs2)cc1 | 5.12
15 | CCOC(=O)c1[nH]ncc1CN1CCCC(C(=O)c2cc(Cl)ccc2OC)C1 (centres unmarked) | -29.9
16 | COc1cccc(-c2nnn(CCC(=O)O)n2)c1 | 5.64
17 | CCOC(=O)C1(CCCc2ccccc2)CCN(C(=O)CCc2cnn(C)c2)CC1 | -13.2
18 | O=C(NCC(c1ccco1)N1CCN(c2ccccc2)CC1)OCc1ccccc1 (centres unmarked) | 4.56
19 | COC(=O)Cc1ccc(NC(=S)NCCO)cc1 | 7.83

Row | SMILES | hERG current change (%, negative = inhibition) at 1uM [%]
20 | CN(Cc1nc(CC2CC2)no1)CC12CC3CC(CC(C3)C1)C2 | 10.4
21 | COC(=O)c1ccccc1OCCN1CCCCCC1.O=C(O)C(=O)O | -4.59
22 | O=C(Nc1ccccc1Br)c1cc(=O)c2ccccc2o1 | 11.5
23 | NC(=O)COc1cccc(/C=N/NC(=O)c2ccc(-n3cccc3)cc2)c1 | 11.2
24 | CCOc1ccc(NC(=O)C2CCCN2C(=O)Oc2ccccc2)cc1 (centres unmarked) | 8.86
25 | CCc1c(C(=O)OCc2ccccc2)[nH]c(C)c1C | 5.66
26 | Cc1nnc(SCC(=O)c2ccc(S(=O)(=O)N3CCOCC3)cc2)n1-c1ccccc1 | -4.32
27 | O=c1cc(-c2ccco2)nc(-c2cccs2)o1 | 15.8
28 | CCN(CC)CC#CCOC(c1ccccc1)c1ccccc1.Cl | 9.79
29 | CCCCn1c(=O)[nH]c(=O)c2c1nc(-c1ccsc1)n2Cc1ccccc1 | 1.49
30 | CCOc1ccc(/C(O)=C2/C(=O)C(=O)N(c3nc(C)c(C)s3)C2c2ccco2)cc1 (centres unmarked) | 2.89
31 | Nc1ncc2c(n1)CCN(c1ccc([N+](=O)[O-])cc1)C2 | -4.4
32 | CC(=O)c1ccc(NC(=O)COC(=O)CCN2C(=O)c3cccc([N+](=O)[O-])c3C2=O)cc1 | 16
33 | CCOC(=O)Cc1csc(N/N=C/c2ccc(Cl)cc2)n1 | 17.8
34 | COc1cc(OC)c(OC)cc1/C=C/c1cc(C(F)(F)F)[nH]c(=O)n1 | 19
35 | COc1ccc(N2CC(NC(=O)c3cccc4ccccc34)CC2=O)cc1OC (centres unmarked) | 16.4
36 | Cc1cc(Br)cc2c1N(C)C(=O)C2(c1ccc(O)cc1)c1ccc(O)cc1 | 12
37 | O=C(COC(=O)c1ccc(Cl)c(S(=O)(=O)N2CCc3ccccc3C2)c1)Nc1ncc(Cl)cc1Cl | 5.29
38 | O=C(Nc1cccc(F)c1)N1CC=C(c2ccc(Cl)cc2)CC1 | 14.4

Row | SMILES | hERG current change (%, negative = inhibition) at 1uM [%]
39 | CCN(c1cccc(C)c1)S(=O)(=O)c1cn(CC(=O)OC)c2ccc([N+](=O)[O-])cc12 | 13.4
40 | CCc1nnc(N2C(=O)c3ccccc3C2(O)c2ccccc2)s1 (centres unmarked) | 3.79
41 | NC(=O)c1c(NC(=O)CN2CCN(S(=O)(=O)c3ccccc3)CC2)sc2c1CCC2 | 8.55
42 | COc1cc(NC(=S)N2CCN(C)CC2)c(OC)cc1Cl | 1.79
43 | Cc1nc2c3cc(F)ccc3n(Cc3ccc(F)cc3)c2s1 | 12.4
44 | Cc1cc2cc(CN(Cc3nnnn3C3CCCCC3)CC3CCCO3)c(=O)[nH]c2cc1C (centres unmarked) | 9.82
45 | CN1CCN(C(=O)c2cc3nc(-c4ccco4)cc(C(F)(F)F)n3n2)CC1 | 0.742
46 | CC[n+]1cc(-c2ccccc2)nc(N2CCOCC2)n1.[I-] | 12.5
47 | CC1(C2CC2)NC(=O)N(CC(=O)NCc2ccc(Cl)cc2Cl)C1=O (centres unmarked) | 2.44
48 | COCCCn1c(=N)c(C(=O)NCC2CCCO2)cc2c(=O)n3ccccc3nc21 (centres unmarked) | -44.3
49 | Cc1ccc2c(CC(=O)NCC3(N4CCOCC4)CCCCC3)coc2c1C | -5.15
50 | CC(O)[C@H]1CNC(=O)C(=O)N1CCc1cc(C(F)(F)F)cc(C(F)(F)F)c1 (some centres unmarked) | 15.9
51 | COC(=O)COc1ccc2c(=O)c(Oc3ccccc3Br)coc2c1 | 4.12
52 | Cl.O=C(NCCN1CCOCC1)c1ccc(Cl)c(S(=O)(=O)N2CCCCCC2)c1 | -10.3
53 | Cc1c(NS(=O)(=O)c2cccc(C(=O)OCC(=O)N(C)C3CCCCC3)c2)c(=O)n(-c2ccccc2)n1C | 11.7
54 | O=C(CSc1ccc2c(c1)OCCO2)Nc1ccc(N2CCOCC2)cc1 | 11.6
55 | C=CCN(CC=C)C(=S)NC(=O)Cc1cccc2ccccc12 | 5.08
56 | CC(C)(C)c1ccc(-c2noc(CCC(=O)NCc3ccco3)n2)cc1 | 6.44
